Laboratory results taken from the supplement of paper PMC9542798.

Columns and labels:
Test in all cases: minimum inhibitory concentration
Chloramphenicol = compound: O=C(N[C@H](CO)[C@H](O)c1ccc([N+](=O)[O-])cc1)C(Cl)Cl [Chloramphenicol]
Method: (§1)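 Broth microdilution MIC per ISO 10932 on precoated VetMIC Lact-1 plates (tylosin, vancomycin and ampicillin plates prepared manually) against lactic acid bacteria and bifidobacteria isolates. Plates were read visually after 48 h anaerobic incubation (bifidobacteria 72 h; enterococci and staphylococci 24 h aerobic) at species-specific temperatures of 30 or 37 °C. Values prefixed with < or > are outside the tested dilution range.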

Erythromycin = compound: CC[C@H]1OC(=O)[C@H](C)[C@@H](O[C@H]2C[C@@](C)(OC)[C@@H](O)[C@H](C)O2)[C@H](C)[C@@H](O[C@@H]2O[C@H](C)C[C@H](N(C)C)[C@H]2O)[C@](C)(O)C[C@@H](C)C(=O)[C@H](C)[C@@H](O)[C@]1(C)O [Erythromycin]
Method: as §1

Clindamycin = compound: CCC[C@@H]1C[C@@H](C(=O)N[C@@H]([C@H]2O[C@H](SC)[C@H](O)[C@@H](O)[C@H]2O)[C@H](C)Cl)N(C)C1 [Clindamycin]
Method: as §1

Gentamicin = compound: CNC(C)C1CCC(N)C(OC2C(N)CC(N)C(OC3OCC(C)(O)C(NC)C3O)C2O)O1 [Gentamicin]
Method: as §1

Ampicillin = compound: CC1(C)S[C@@H]2[C@H](NC(=O)[C@H](N)c3ccccc3)C(=O)N2[C@H]1C(=O)O [Ampicillin]
Method: as §1

Kanamycin = compound: NC[C@H]1O[C@H](O[C@H]2[C@H](O)[C@@H](O[C@H]3O[C@H](CO)[C@@H](O)[C@H](N)[C@H]3O)[C@H](N)C[C@@H]2N)[C@H](O)[C@@H](O)[C@@H]1O [Kanamycin]
Method: as §1

Neomycin = compound: NC[C@@H]1O[C@H](O[C@H]2[C@@H](O)[C@H](O[C@@H]3[C@@H](O)[C@H](N)C[C@H](N)[C@H]3O[C@H]3O[C@H](CN)[C@@H](O)[C@H](O)[C@H]3N)O[C@@H]2CO)[C@H](N)[C@@H](O)[C@@H]1O [Neomycin]
Method: as §1

Streptomycin = compound: CN[C@@H]1[C@H](O[C@H]2[C@H](O[C@H]3[C@H](O)[C@@H](O)[C@H](N=C(N)N)[C@@H](O)[C@@H]3N=C(N)N)O[C@@H](C)[C@]2(O)C=O)O[C@@H](CO)[C@H](O)[C@H]1O [Streptomycin]
Method: as §1

Tetracycline = compound: CN(C)[C@@H]1C(O)=C(C(N)=O)C(=O)[C@@]2(O)C(O)=C3C(=O)c4c(O)cccc4[C@@](C)(O)[C@H]3C[C@@H]12 [Tetracycline]
Method: as §1
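Also: isolates derived from commercial starter, protective, probiotic or feed-additive cultures, from fermented products, from human gut mucosa or feces, and from human milk or colostrum.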

Test System	minimum inhibitory concentration (Chloramphenicol)	minimum inhibitory concentration (Erythromycin)	minimum inhibitory concentration (Clindamycin)	minimum inhibitory concentration (Gentamicin)	minimum inhibitory concentration (Ampicillin)	minimum inhibitory concentration (Kanamycin)	minimum inhibitory concentration (Neomycin)	minimum inhibitory concentration (Streptomycin)	minimum inhibitory concentration (Tetracycline)
Lacticaseibacillus paracasei IM1137 (strain group: non-starter strains)	8 µg/mL	0.5 µg/mL	0.25 µg/mL	4 µg/mL	2 µg/mL	64 µg/mL	4 µg/mL	64 µg/mL	32 µg/mL
Lacticaseibacillus paracasei IM1102 (strain group: non-starter strains)	4 µg/mL	0.12 µg/mL	0.25 µg/mL	2 µg/mL	2 µg/mL	32 µg/mL	4 µg/mL	16 µg/mL	1 µg/mL
Limosilactobacillus fermentum IM686 (strain group: human intestinal mucosa or faeces)	16 µg/mL	1 µg/mL	0.12 µg/mL	2 µg/mL	0.5 µg/mL	128 µg/mL	2 µg/mL	64 µg/mL	8 µg/mL
Latilactobacillus curvatus IM1002 (strain group: non-starter strains)	4 µg/mL	0.12 µg/mL	0.12 µg/mL	4 µg/mL	1 µg/mL	64 µg/mL	8 µg/mL	32 µg/mL	1 µg/mL
Limosilactobacillus fermentum IM864 (strain group: human milk or colostrum)	8 µg/mL	0.25 µg/mL	0.06 µg/mL	2 µg/mL	0.5 µg/mL	64 µg/mL	2 µg/mL	32 µg/mL	8 µg/mL
Lacticaseibacillus paracasei IM1298 (strain group: non-starter strains)	8 µg/mL	0.25 µg/mL	0.25 µg/mL	4 µg/mL	4 µg/mL	64 µg/mL	8 µg/mL	16 µg/mL	1 µg/mL
Pediococcus pentosaceus IM1113 (strain group: non-starter strains)	8 µg/mL	0.5 µg/mL	0.12 µg/mL	4 µg/mL	4 µg/mL	256 µg/mL	8 µg/mL	64 µg/mL	32 µg/mL
Lacticaseibacillus paracasei IM1093 (strain group: non-starter strains)	4 µg/mL	0.12 µg/mL	< 0.03 µg/mL	1 µg/mL	1 µg/mL	16 µg/mL	2 µg/mL	8 µg/mL	0.5 µg/mL
Pediococcus pentosaceus IM1139 (strain group: non-starter strains)	4 µg/mL	0.5 µg/mL	0.06 µg/mL	4 µg/mL	8 µg/mL	256 µg/mL	8 µg/mL	64 µg/mL	32 µg/mL
Limosilactobacillus fermentum IM689 (strain group: human intestinal mucosa or faeces)	16 µg/mL	0.5 µg/mL	0.06 µg/mL	1 µg/mL	0.5 µg/mL	64 µg/mL	2 µg/mL	32 µg/mL	8 µg/mL
Lactiplantibacillus plantarum IM702 (strain group: human intestinal mucosa or faeces)	8 µg/mL	0.5 µg/mL	2 µg/mL	8 µg/mL	0.25 µg/mL	256 µg/mL	8 µg/mL	64 µg/mL	16 µg/mL
Latilactobacillus curvatus IM1363 (strain group: non-starter strains)	2 µg/mL	0.5 µg/mL	0.12 µg/mL	8 µg/mL	2 µg/mL	32 µg/mL	8 µg/mL	64 µg/mL	1 µg/mL
Lacticaseibacillus paracasei IM1283 (strain group: non-starter strains)	4 µg/mL	0.12 µg/mL	0.25 µg/mL	2 µg/mL	1 µg/mL	64 µg/mL	4 µg/mL	16 µg/mL	1 µg/mL
Limosilactobacillus fermentum IM710 (strain group: human milk or colostrum)	4 µg/mL	0.25 µg/mL	0.06 µg/mL	2 µg/mL	0.5 µg/mL	128 µg/mL	2 µg/mL	32 µg/mL	8 µg/mL
Limosilactobacillus fermentum IM688 (strain group: human intestinal mucosa or faeces)	8 µg/mL	0.25 µg/mL	0.06 µg/mL	2 µg/mL	0.5 µg/mL	64 µg/mL	2 µg/mL	32 µg/mL	4 µg/mL
Lacticaseibacillus paracasei IM1289 (strain group: non-starter strains)	4 µg/mL	0.12 µg/mL	0.06 µg/mL	2 µg/mL	1 µg/mL	64 µg/mL	4 µg/mL	16 µg/mL	1 µg/mL
Lactiplantibacillus paraplantarum IM1346 (strain group: non-starter strains)	4 µg/mL	1 µg/mL	2 µg/mL	1 µg/mL	0.25 µg/mL	4 µg/mL	2 µg/mL	16 µg/mL	8 µg/mL
Lacticaseibacillus paracasei IM1036 (strain group: non-starter strains)	4 µg/mL	0.12 µg/mL	0.12 µg/mL	2 µg/mL	0.5 µg/mL	32 µg/mL	4 µg/mL	16 µg/mL	1 µg/mL

Test System	minimum inhibitory concentration (Chloramphenicol)	minimum inhibitory concentration (Erythromycin)	minimum inhibitory concentration (Clindamycin)	minimum inhibitory concentration (Gentamicin)	minimum inhibitory concentration (Ampicillin)	minimum inhibitory concentration (Kanamycin)	minimum inhibitory concentration (Neomycin)	minimum inhibitory concentration (Streptomycin)	minimum inhibitory concentration (Tetracycline)
Lactiplantibacillus plantarum IM1295 (strain group: non-starter strains)	8 µg/mL	0.25 µg/mL	2 µg/mL	4 µg/mL	1 µg/mL	64 µg/mL	4 µg/mL	32 µg/mL	16 µg/mL
Lacticaseibacillus paracasei IM1352 (strain group: non-starter strains)	4 µg/mL	0.5 µg/mL	0.25 µg/mL	4 µg/mL	4 µg/mL	64 µg/mL	8 µg/mL	32 µg/mL	1 µg/mL
Leuconostoc mesenteroides IM1362 (strain group: non-starter strains)	8 µg/mL	0.25 µg/mL	0.06 µg/mL	< 0.5 µg/mL	1 µg/mL	8 µg/mL	< 0.5 µg/mL	4 µg/mL	2 µg/mL
Lactiplantibacillus plantarum IM1045 (strain group: non-starter strains)	8 µg/mL	0.5 µg/mL	1 µg/mL	8 µg/mL	0.5 µg/mL	128 µg/mL	8 µg/mL	64 µg/mL	16 µg/mL
Lacticaseibacillus paracasei IM1080 (strain group: non-starter strains)	4 µg/mL	0.12 µg/mL	0.25 µg/mL	1 µg/mL	2 µg/mL	16 µg/mL	1 µg/mL	8 µg/mL	1 µg/mL
Leuconostoc mesenteroides IM1373 (strain group: starter cultures)	8 µg/mL	0.5 µg/mL	0.25 µg/mL	< 0.5 µg/mL	1 µg/mL	16 µg/mL	< 0.5 µg/mL	8 µg/mL	4 µg/mL
Lacticaseibacillus paracasei IM1282 (strain group: non-starter strains)	4 µg/mL	0.12 µg/mL	0.25 µg/mL	2 µg/mL	1 µg/mL	64 µg/mL	4 µg/mL	32 µg/mL	1 µg/mL
Lacticaseibacillus paracasei IM694 (strain group: human intestinal mucosa or faeces)	4 µg/mL	0.12 µg/mL	1 µg/mL	4 µg/mL	1 µg/mL	32 µg/mL	8 µg/mL	32 µg/mL	2 µg/mL
Lacticaseibacillus rhamnosus/paracasei/casei IM855 (strain group: human milk or colostrum)	8 µg/mL	0.25 µg/mL	0.06 µg/mL	4 µg/mL	0.5 µg/mL	128 µg/mL	4 µg/mL	64 µg/mL	8 µg/mL
Lentilactobacillus parabuchneri IM1357 (strain group: non-starter strains)	4 µg/mL	0.5 µg/mL	0.06 µg/mL	< 0.5 µg/mL	0.5 µg/mL	4 µg/mL	< 0.5 µg/mL	4 µg/mL	32 µg/mL
Lacticaseibacillus paracasei IM836 (strain group: probiotic strains)	4 µg/mL	0.25 µg/mL	0.25 µg/mL	16 µg/mL	2 µg/mL	256 µg/mL	32 µg/mL	64 µg/mL	1 µg/mL
Pediococcus acidilactici/pentosaceus/lolli IM704 (strain group: human milk or colostrum)	8 µg/mL	1 µg/mL	0.12 µg/mL	8 µg/mL	4 µg/mL	512 µg/mL	16 µg/mL	128 µg/mL	32 µg/mL
Lacticaseibacillus rhamnosus IM700 (strain group: human intestinal mucosa or faeces)	4 µg/mL	0.25 µg/mL	1 µg/mL	8 µg/mL	1 µg/mL	64 µg/mL	32 µg/mL	16 µg/mL	1 µg/mL
Lactiplantibacillus plantarum IM1158 (strain group: non-starter strains)	4 µg/mL	0.5 µg/mL	4 µg/mL	8 µg/mL	2 µg/mL	128 µg/mL	8 µg/mL	64 µg/mL	8 µg/mL
Lacticaseibacillus rhamnosus IM1119 (strain group: non-starter strains)	8 µg/mL	0.25 µg/mL	1 µg/mL	4 µg/mL	2 µg/mL	64 µg/mL	8 µg/mL	8 µg/mL	1 µg/mL
Lactiplantibacillus plantarum IM1162 (strain group: non-starter strains)	8 µg/mL	0.5 µg/mL	2 µg/mL	4 µg/mL	2 µg/mL	128 µg/mL	4 µg/mL	64 µg/mL	16 µg/mL
Lactiplantibacillus plantarum IM1331 (strain group: non-starter strains)	8 µg/mL	1 µg/mL	16 µg/mL	2 µg/mL	1 µg/mL	32 µg/mL	1 µg/mL	32 µg/mL	16 µg/mL
Lacticaseibacillus casei IM1125 (strain group: non-starter strains)	4 µg/mL	0.12 µg/mL	0.12 µg/mL	4 µg/mL	2 µg/mL	32 µg/mL	4 µg/mL	16 µg/mL	1 µg/mL
